Test results published in paper PMC5584178.
Results are given in words; binding and its absence hold for the method and conditions named. For some of these results: Binding seen in cells or lysates may run through a third protein. Some results given as binding are weak or reduced against the parent protein; the word gives no strength. Sequences can lack the tags named with a protein.

Amino acid sequences for entries named in this document (tags omitted). A change or cut given only in a name is not applied to a line headed by its entry.
UniProt P40235: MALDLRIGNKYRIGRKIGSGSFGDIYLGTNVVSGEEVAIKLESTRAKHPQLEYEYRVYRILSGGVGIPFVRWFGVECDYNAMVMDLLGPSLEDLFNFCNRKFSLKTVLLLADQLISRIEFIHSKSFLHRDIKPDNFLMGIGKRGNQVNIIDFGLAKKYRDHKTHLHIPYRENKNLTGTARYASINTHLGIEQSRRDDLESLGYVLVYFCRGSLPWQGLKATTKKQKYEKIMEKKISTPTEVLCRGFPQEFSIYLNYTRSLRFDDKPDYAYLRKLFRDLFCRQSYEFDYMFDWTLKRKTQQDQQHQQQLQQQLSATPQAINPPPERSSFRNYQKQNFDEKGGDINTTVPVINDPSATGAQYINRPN

T1: Chk2^Cds1.GFP (fission yeast) (UniProt Q09170)
T1 sequence: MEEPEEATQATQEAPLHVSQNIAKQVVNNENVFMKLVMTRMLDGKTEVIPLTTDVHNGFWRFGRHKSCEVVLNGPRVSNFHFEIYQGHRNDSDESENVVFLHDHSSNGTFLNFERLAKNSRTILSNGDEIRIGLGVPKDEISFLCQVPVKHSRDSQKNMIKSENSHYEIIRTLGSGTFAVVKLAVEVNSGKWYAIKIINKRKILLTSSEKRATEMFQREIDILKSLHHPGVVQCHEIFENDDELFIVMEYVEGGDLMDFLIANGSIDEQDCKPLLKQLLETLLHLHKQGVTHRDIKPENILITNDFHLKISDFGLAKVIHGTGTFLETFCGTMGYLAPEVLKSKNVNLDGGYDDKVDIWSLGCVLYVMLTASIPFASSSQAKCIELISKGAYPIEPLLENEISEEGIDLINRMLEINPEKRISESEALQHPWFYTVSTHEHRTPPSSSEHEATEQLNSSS

T2: CK1δ^Hhp2, two-hybrid fusion (fission yeast) (UniProt P40236)
T2 sequence: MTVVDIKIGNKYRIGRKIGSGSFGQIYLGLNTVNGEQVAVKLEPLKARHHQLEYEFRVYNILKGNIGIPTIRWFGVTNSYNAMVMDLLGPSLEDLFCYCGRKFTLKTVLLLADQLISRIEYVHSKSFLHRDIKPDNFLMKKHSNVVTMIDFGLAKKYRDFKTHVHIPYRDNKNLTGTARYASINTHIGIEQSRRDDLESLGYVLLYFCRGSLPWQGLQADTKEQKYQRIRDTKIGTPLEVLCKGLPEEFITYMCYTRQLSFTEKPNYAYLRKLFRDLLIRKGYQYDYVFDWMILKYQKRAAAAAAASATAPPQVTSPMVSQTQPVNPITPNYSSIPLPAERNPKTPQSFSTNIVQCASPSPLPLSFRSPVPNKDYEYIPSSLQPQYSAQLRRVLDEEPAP

T3: Ppc89, two-hybrid fusion (fission yeast) (UniProt Q10218)
T3 sequence: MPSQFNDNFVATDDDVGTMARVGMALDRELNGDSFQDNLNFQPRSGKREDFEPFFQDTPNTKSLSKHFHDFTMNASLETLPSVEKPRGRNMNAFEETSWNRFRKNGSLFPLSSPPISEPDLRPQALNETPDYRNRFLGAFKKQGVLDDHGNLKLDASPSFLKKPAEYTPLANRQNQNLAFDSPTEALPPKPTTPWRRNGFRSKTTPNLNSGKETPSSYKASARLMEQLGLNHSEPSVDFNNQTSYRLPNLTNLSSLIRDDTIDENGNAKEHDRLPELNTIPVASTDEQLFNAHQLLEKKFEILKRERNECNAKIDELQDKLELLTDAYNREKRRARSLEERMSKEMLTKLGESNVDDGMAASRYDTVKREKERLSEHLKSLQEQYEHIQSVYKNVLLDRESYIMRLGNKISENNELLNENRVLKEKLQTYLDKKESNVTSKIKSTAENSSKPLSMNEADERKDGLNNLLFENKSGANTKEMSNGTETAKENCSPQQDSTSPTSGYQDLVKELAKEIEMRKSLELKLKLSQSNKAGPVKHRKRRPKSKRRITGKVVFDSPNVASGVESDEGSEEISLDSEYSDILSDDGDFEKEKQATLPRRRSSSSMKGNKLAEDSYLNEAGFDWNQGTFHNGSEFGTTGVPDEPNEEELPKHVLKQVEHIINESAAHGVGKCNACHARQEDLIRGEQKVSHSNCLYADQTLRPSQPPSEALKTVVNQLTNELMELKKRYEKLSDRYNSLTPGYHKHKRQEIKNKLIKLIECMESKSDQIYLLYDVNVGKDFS


How the values were obtained:
[1] = biological target: T1, Chk2^Cds1.GFP (fission yeast); experiment: co-IP; Chk2^Cds1.GFP precipitated with GFP-Trap-MA from cryo-ground S. pombe dma1.Δ cells in IP2 buffer (50 mM Hepes pH 7.5, 150 mM NaCl, 0.2% triton X-100); Sid4 detected by Western blot with Sid4 antibodies
[2] = biological target: CK1δ^Hhp1, two-hybrid fusion (fission yeast) (UniProt P40235); experiment: two-hybrid; Matchmaker Gold system, pGADT7 in Y187 crossed with pGBKT7 in Y2HGold; diploids plated on SD-Trp-Leu and SD-Trp-Leu-His, 30°C, 2-3 d
[3] = biological target: T2, CK1δ^Hhp2, two-hybrid fusion (fission yeast); experiment: as above
[4] = biological target: T3, Ppc89, two-hybrid fusion (fission yeast); experiment: as above

| Binder | binding [1] | binding [2] | binding [3] | binding [4] |
| --- | --- | --- | --- | --- |
| Sid4.T275AS278A (protein, UniProt O60187 1-660) MDEAFGDSLSTDYRWLGHSHFDSHPSAGDSIYFDSLDEDADPSRTARIDRIAELLDGLNDEQISELVNGVNSTTIKENTKKEISNPNDSTRLPLEQIPGSNNLFLDPRHQLGDNSQNAQRHHEPSFNSEKASYTSTPYKNVAPKVIDSPSARHMHSNSPSFPPSQSHTSSYDQSPKGQLRDNISVPNQQDGLDPEVFNQQSKETKKSLQVPPSRNVPPPVTRPNQYNPEPNFSLSSGYPQQHFSQPELQNRNVHLETVPESYPVPPSGYPLTSSACVASISQPIQSTDCQKAQENLSNNKQMSSNDQDIDPFKQAITDLPPSFVNIVLEMNATIQSLSNQCQQRDKQIENITKQLLMNQQDYCPTTMSTTVSTPLCPPKRFPKSTKDFKEQKPDTKQVRSATISNDFNLKGNGRYNEKSQIAVPSEIRVQLSTLDAILLQFEHLRKELTQARKEIQILRHTSQNGDQESNESSKNAITTKTTDKGNNKENTMLNDGSTAPAKNDIRNVINTNNLDAKLSDESELMIEKNKSYSTPASSTIPTFHTSQPLTSLNMPDSRFNLAKEKQLYYRLGLQHIDQQCSVETANMLKTVLVQLNIPFAIFPSTIGQVRRQLQQGRRLYQWARNIHYLIYEENMRDGLVSKQCLADMLKKIRELKKRSL | no binding | – | – | – |
| Sid4.T275ES278D (protein, UniProt O60187 1-660) MDEAFGDSLSTDYRWLGHSHFDSHPSAGDSIYFDSLDEDADPSRTARIDRIAELLDGLNDEQISELVNGVNSTTIKENTKKEISNPNDSTRLPLEQIPGSNNLFLDPRHQLGDNSQNAQRHHEPSFNSEKASYTSTPYKNVAPKVIDSPSARHMHSNSPSFPPSQSHTSSYDQSPKGQLRDNISVPNQQDGLDPEVFNQQSKETKKSLQVPPSRNVPPPVTRPNQYNPEPNFSLSSGYPQQHFSQPELQNRNVHLETVPESYPVPPSGYPLTSSECVDSISQPIQSTDCQKAQENLSNNKQMSSNDQDIDPFKQAITDLPPSFVNIVLEMNATIQSLSNQCQQRDKQIENITKQLLMNQQDYCPTTMSTTVSTPLCPPKRFPKSTKDFKEQKPDTKQVRSATISNDFNLKGNGRYNEKSQIAVPSEIRVQLSTLDAILLQFEHLRKELTQARKEIQILRHTSQNGDQESNESSKNAITTKTTDKGNNKENTMLNDGSTAPAKNDIRNVINTNNLDAKLSDESELMIEKNKSYSTPASSTIPTFHTSQPLTSLNMPDSRFNLAKEKQLYYRLGLQHIDQQCSVETANMLKTVLVQLNIPFAIFPSTIGQVRRQLQQGRRLYQWARNIHYLIYEENMRDGLVSKQCLADMLKKIRELKKRSL | binds | – | – | – |
| C-terminal fragment of Sid4 (466–660 aa) T584E, two-hybrid fusion (domain or fragment, UniProt O60187 466-660) DQESNESSKNAITTKTTDKGNNKENTMLNDGSTAPAKNDIRNVINTNNLDAKLSDESELMIEKNKSYSTPASSTIPTFHTSQPLTSLNMPDSRFNLAKEKQLYYRLGLQHIDQQCSVEEANMLKTVLVQLNIPFAIFPSTIGQVRRQLQQGRRLYQWARNIHYLIYEENMRDGLVSKQCLADMLKKIRELKKRSL | – | binds | binds | – |
| C-terminal fragment of Sid4 (466–660 aa) T584D, two-hybrid fusion (domain or fragment, UniProt O60187 466-660) DQESNESSKNAITTKTTDKGNNKENTMLNDGSTAPAKNDIRNVINTNNLDAKLSDESELMIEKNKSYSTPASSTIPTFHTSQPLTSLNMPDSRFNLAKEKQLYYRLGLQHIDQQCSVEDANMLKTVLVQLNIPFAIFPSTIGQVRRQLQQGRRLYQWARNIHYLIYEENMRDGLVSKQCLADMLKKIRELKKRSL | – | binds | binds | – |

The remaining lines, values ahead:

| binding [1] | binding [2] | binding [3] | binding [4] | Binder |
| --- | --- | --- | --- | --- |
| binds | – | – | – | Sid4 (protein, UniProt O60187 1-660) MDEAFGDSLSTDYRWLGHSHFDSHPSAGDSIYFDSLDEDADPSRTARIDRIAELLDGLNDEQISELVNGVNSTTIKENTKKEISNPNDSTRLPLEQIPGSNNLFLDPRHQLGDNSQNAQRHHEPSFNSEKASYTSTPYKNVAPKVIDSPSARHMHSNSPSFPPSQSHTSSYDQSPKGQLRDNISVPNQQDGLDPEVFNQQSKETKKSLQVPPSRNVPPPVTRPNQYNPEPNFSLSSGYPQQHFSQPELQNRNVHLETVPESYPVPPSGYPLTSSTCVSSISQPIQSTDCQKAQENLSNNKQMSSNDQDIDPFKQAITDLPPSFVNIVLEMNATIQSLSNQCQQRDKQIENITKQLLMNQQDYCPTTMSTTVSTPLCPPKRFPKSTKDFKEQKPDTKQVRSATISNDFNLKGNGRYNEKSQIAVPSEIRVQLSTLDAILLQFEHLRKELTQARKEIQILRHTSQNGDQESNESSKNAITTKTTDKGNNKENTMLNDGSTAPAKNDIRNVINTNNLDAKLSDESELMIEKNKSYSTPASSTIPTFHTSQPLTSLNMPDSRFNLAKEKQLYYRLGLQHIDQQCSVETANMLKTVLVQLNIPFAIFPSTIGQVRRQLQQGRRLYQWARNIHYLIYEENMRDGLVSKQCLADMLKKIRELKKRSL |
| – | no binding | no binding | binds | C-terminal fragment of Sid4 (466–660 aa) T584V, two-hybrid fusion (domain or fragment, UniProt O60187 466-660) DQESNESSKNAITTKTTDKGNNKENTMLNDGSTAPAKNDIRNVINTNNLDAKLSDESELMIEKNKSYSTPASSTIPTFHTSQPLTSLNMPDSRFNLAKEKQLYYRLGLQHIDQQCSVEVANMLKTVLVQLNIPFAIFPSTIGQVRRQLQQGRRLYQWARNIHYLIYEENMRDGLVSKQCLADMLKKIRELKKRSL |
| – | binds | binds weakly | binds | C-terminal fragment of Sid4 (466–660 aa) T584A, two-hybrid fusion (domain or fragment, UniProt O60187 466-660) DQESNESSKNAITTKTTDKGNNKENTMLNDGSTAPAKNDIRNVINTNNLDAKLSDESELMIEKNKSYSTPASSTIPTFHTSQPLTSLNMPDSRFNLAKEKQLYYRLGLQHIDQQCSVEAANMLKTVLVQLNIPFAIFPSTIGQVRRQLQQGRRLYQWARNIHYLIYEENMRDGLVSKQCLADMLKKIRELKKRSL |
| – | no binding | no binding | binds | C-terminal fragment of Sid4 (466–660 aa), two-hybrid fusion (domain or fragment, UniProt O60187 466-660) DQESNESSKNAITTKTTDKGNNKENTMLNDGSTAPAKNDIRNVINTNNLDAKLSDESELMIEKNKSYSTPASSTIPTFHTSQPLTSLNMPDSRFNLAKEKQLYYRLGLQHIDQQCSVETANMLKTVLVQLNIPFAIFPSTIGQVRRQLQQGRRLYQWARNIHYLIYEENMRDGLVSKQCLADMLKKIRELKKRSL |
